# Test results published in PubChem BioAssay AID2546 (National Center for Advancing Translational Sciences (NCATS), 2010).
# The campaign covered roughly 310,000 compounds. About 11,000 (3.5%) were called active. This list was built around the results that the source calls inconclusive (neither active nor inactive); the mix of calls is not that of the screen. Calls come from the whole dose curve; as a rule, active = well fitted inhibition curve with a large enough effect; inconclusive = small, poorly fitted or top-dose-only effect, or effect the other way; inactive = flat fitted curve, though single readings scatter. No potency is given beside an inconclusive call; the fits are too rough.
# Assay: VP16 counterscreen qHTS for inhibitors of ROR gamma transcriptional activity;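 note: Gal4-VP16 expression switched on by copper sulfate through the metallothionein promoter; nearly all actives have a fitted effect of over 50% in size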
# Conditions: Drosophila S2 Gal4-VP16 UAS-luciferase, luminescence, 20 h; activity, negative = inhibition: at 53.6 µM (top of the series)
# % is set by controls: 0 for no effect and ±100 for the full control effect; potency is the fitted concentration of half-maximal effect; tags give direction and shape of the fitted curve.
Structure (SMILES),Potency,"activity, negative = inhibition"
O=C(NC(=S)Nc1ccccc1N1CCCCC1)c1ccccc1,active: 7.94 µM,
Cn1c(=O)[nH]c(=O)c2c1nc(N1CCC(Cc3ccccc3)CC1)n2Cc1ccccc1,"inconclusive [inhibitor, single point]",
CCCCNC(=O)c1onc(CSc2ccc(C)c(C)c2)c1C(=O)O,inactive,
CCc1ccc(N=C2NC(=O)/C(=C/c3cc(OC)c(O)c(OC)c3)S2)cc1,"inconclusive [inhibitor, partial curve, poor fit]",
CCc1nc2ccccc2n1Cc1ccccc1OC,"inconclusive [inhibitor, single point]",
CS(=O)(=O)c1ncc(Cl)c(C(=O)Nc2ccc(OC(F)F)cc2)n1,active: 1.26 µM,
C#CCOc1c(Br)cc(/C=C2/C(=O)ON=C2C)cc1OCC,"inconclusive [activator, single point]",
COc1cc2cc(C(c3nnnn3Cc3ccc(F)cc3)N3CCCCCC3)c(=O)[nH]c2cc1OC (stereo unspecified),inactive,
O=C(NCCc1ccc2c(c1)OCCO2)c1cccc(F)c1,"inconclusive [inhibitor, single point]",
Cc1ccsc1/C=N/NC(=O)CN1CCN(S(=O)(=O)c2ccc(Br)cc2)CC1,"inconclusive [inhibitor, single point]",
COc1cccc(/C=N/NC(=O)C(=O)NCc2ccco2)c1O,active: 6.31 µM,
O=C(NCc1ccco1)c1nc2ccccc2s1,"inconclusive [activator, single point]",
O=C(c1ccc(COc2ccccc2Br)o1)N1N=C(C(F)F)CC1(O)C(F)F (stereo unspecified),"inconclusive [inhibitor, single point]",
CCn1cc(C(=O)NCc2ccc3c(c2)OCO3)c(=O)c2cc(F)c(N3CCN(C(=O)c4ccco4)CC3)cc21,"inconclusive [inhibitor, full curve, poor fit]",
O=C1OC(c2ccco2)=N/C1=C\c1ccc(-c2cccc(C(F)(F)F)c2)o1,"inconclusive [activator, single point]",
O=C(CCC(=O)NNC(=S)Nc1ccccc1)NCc1ccccc1,"inconclusive [inhibitor, single point]",
Cc1cc(N2CCOCC2)nc(C(C)C)n1,"inconclusive [activator, single point]",
Cc1ccc(/C=N/NC(=O)CN2CCN(S(=O)(=O)c3ccc(Br)cc3)CC2)s1,"inconclusive [inhibitor, single point]",
COc1ccc(N2C(=O)C(Cl)=C(Oc3cccc(OC)c3)C2=O)cc1,"inconclusive [inhibitor, single point]",
O=c1[nH]c2ccc(Cl)cc2c(-c2ccccc2)c1N1CCN(CCO)CC1,inactive,
CCC1=NN(C(=O)CCc2ccccc2O)C(O)(C(F)(F)F)C1 (stereo unspecified),"inconclusive [inhibitor, single point]",
O=C(NCCc1ccccc1)c1ccccc1F,"inconclusive [inhibitor, partial curve]",
O=C(CSC1=NNC(c2ccccn2)S1)Nc1cccc(Cl)c1 (stereo unspecified),active: 12.6 µM,

Structure (SMILES),Potency,"activity, negative = inhibition"
COc1cc(NC(=O)CSc2nc3c(C)ccc(C)c3cc2C)c(C(=O)O)cc1OC,"inconclusive [activator, single point]",
Cc1ccsc1/C=C/c1ccc2cccc(O)c2n1,"inconclusive [inhibitor, single point]",
Cc1cc(C(=O)N/N=C/c2ccc([N+](=O)[O-])o2)c(C)o1,"inconclusive [inhibitor, single point]",
Cc1cc(N2CCOCC2)n2ncc(-c3ccc(Cl)cc3)c2n1,"inconclusive [activator, full curve, poor fit]",
COc1ccc2c(C)cc(=S)[nH]c2c1,"inconclusive [inhibitor, single point]",
CC(C)C(=O)Nc1cccc(NC(=S)NC(=O)C(c2ccccc2)c2ccccc2)c1,"inconclusive [inhibitor, single point]",
O=C(NCCCN1CCOCC1)c1cccs1,"inconclusive [inhibitor, single point]",
Cn1c(/C=C/c2cccc([N+](=O)[O-])c2)c([N+](=O)[O-])c(=O)n(C)c1=O,"inconclusive [inhibitor, single point]",
Cc1nn(-c2ccc(Cl)cc2)c(=O)c2c(C)noc12,inactive,
COC(=O)c1ccc(NC(=O)CCC(=O)c2ccc(F)cc2)cc1,inactive,
Cc1[nH]c2ccccc2c1C(=O)C(=O)NCc1ccco1,,inactive: -3.57% [at 10 µM]
O=C(O)CCCc1nc2ccccc2s1,"inconclusive [inhibitor, full curve]",
CCNC(=O)COc1ccc(/C=C2\COc3ccccc3C2=O)cc1OC,inactive,
O=C(Nc1ccccc1)C1=C[C@H](C2CCCCC2)C[C@H](OCc2ccc(CO)cc2)O1,inactive,
S=C(NCc1ccccc1)NCc1ccco1,"inconclusive [inhibitor, single point]",
Cc1cc(C(=O)CSc2nc3ccccc3n2C)c(C)n1C,"inconclusive [inhibitor, single point]",
O=C(Nc1ccc(F)cc1F)c1csc(-c2ccncc2)n1,inactive,
O=C(NCc1ccccc1)c1nc(S(=O)(=O)Cc2ccccc2)ncc1Cl,active: 2.82 µM,
CCC1(c2ccc(O)cc2)NC(=O)NC1=O (stereo unspecified),inactive,
COc1ccc(C(CCNCc2ccc(F)cc2)c2ccc(F)cc2)cc1 (stereo unspecified),"inconclusive [inhibitor, single point]",
O=C(NNc1ncc(C(F)(F)F)cc1Cl)c1ccc(Cl)c(Cl)c1,"inconclusive [inhibitor, single point]",
CC(C)NC(=O)C1CCN(C2CCN(C(=O)/C=C/c3cccs3)CC2)CC1,inactive,
Cn1nnc(NC(=S)NC(=O)c2cccc3c(Br)cccc23)n1,active: 2.82 µM,
